“And” between values parts separate entries of the source, which are not always exact repeats. Equal values may be shown once. Out of some 48,000 compounds screened, about 1,200 (2.5%) were called active. Roughly 2% stayed inconclusive and do not appear here.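 The calls were made as follows: active = activation of at least 60% and not above a set upper limit (about 1 call in 100 departs from these limits); inconclusive = activation of 40% to 60%, or above that upper limit; inactive = activation under 40%.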 Some of the results follow.
Target: Probable G-protein coupled receptor 32 (Homo sapiens) (UniProt O75388)
Chain of UniProt O75388 (O75388 whole entry, looked up): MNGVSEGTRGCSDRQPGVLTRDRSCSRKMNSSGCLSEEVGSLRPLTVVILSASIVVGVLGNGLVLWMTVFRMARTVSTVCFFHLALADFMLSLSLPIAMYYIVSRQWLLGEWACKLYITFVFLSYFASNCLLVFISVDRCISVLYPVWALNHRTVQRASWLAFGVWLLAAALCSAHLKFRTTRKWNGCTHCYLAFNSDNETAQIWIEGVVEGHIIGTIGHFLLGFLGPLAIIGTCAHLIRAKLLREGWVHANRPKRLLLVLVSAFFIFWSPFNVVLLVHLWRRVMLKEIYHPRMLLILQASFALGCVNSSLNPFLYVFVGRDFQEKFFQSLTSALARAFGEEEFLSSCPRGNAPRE
Assay: qHTS for Agonists of Human Resolvin D1 Receptor DRV1; also: 0% is about no effect
Settings: CHO-K1 GPR32 beta-arrestin PathHunter luminescence, 90 min; at 76.9 µM; active compounds read high; zero percent set by DMSO-only wells
Outline: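 Agonism was scored by beta-Gal fragment complementation (chemiluminescent read, 1 h detection at ambient temperature) reporting beta-arrestin binding to GPR32 in engineered CHO-K1 cells. Compound treatment lasted 90 min at 37 C, normalized to a DMSO basal control.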

Row | SMILES | activation
1 | COc1cccc(C(=O)Nc2c3c(nn2-c2ccc(C)cc2C)CS(=O)(=O)C3)c1OC | inactive: -7.25%
2 | Cc1cccc(N2CCN(c3ncnc4c3cnn4-c3ccc(Cl)cc3)CC2C)c1 (stereo not drawn) | inactive: 25.2%
3 | COC(=O)c1scc(-c2ccc(C)cc2)c1S(=O)(=O)N1CCN(c2ccccc2F)CC1 | inactive: -9.9%
4 | O=C(Cn1c(-c2cccs2)cc2cc(F)ccc21)N1CCCCC1 | inactive: -12.1%
5 | Cc1ccc(C(=O)c2sc(Nc3ccc(F)cc3)nc2N)c(C)c1 | inactive: -20.7%
6 | CC1=C(c2ccc(C)cc2)S(=O)(=O)N(Cc2ccc(C(=O)NCc3ccccc3F)cc2)C1=O | inactive: 3.83%
7 | Cc1ccc2c(c1)C(C)(c1ccccc1)CC(C)(C)N2C(=O)c1ccc(F)cc1 (stereo not drawn) | inactive: -14.1%
8 | COc1ccc(-c2nc(CNC(=O)NC3CCCCC3)c(C)o2)c(OC)c1 | inactive: 31.5%
9 | O=C1CCCc2[nH]c(=O)c(-c3nc(-c4cccc([N+](=O)[O-])c4)cs3)cc21 | inactive: 18.9%
10 | O=C(CCCn1c(=O)[nH]c2ccccc2c1=O)N1CCN(c2ccccc2)CC1 | inactive: -4.99%
11 | CCOC(=O)c1cc2c(=O)n3ccccc3nc2n(Cc2ccco2)c1=NC(=O)c1ccc(F)cc1 | inactive: -25.9%
12 | O=C(CN1C(=O)COc2ccc(S(=O)(=O)N3CCOCC3)cc21)N1CCN(c2ccc(Cl)cc2)CC1 | inactive: -21%
13 | O=S(=O)(NCCc1cn2ccsc2n1)c1ccc(Cl)cc1 | inactive: -8.16%
14 | CCCCCCc1cc2cc(-c3cn4c(n3)sc3cc(OC)ccc34)c(=O)oc2cc1O | inactive: 11.5%
15 | COc1cc(OC)c(NC(=O)Cn2cnc3c(nc4n3CCCCC4)c2=O)cc1Cl | inactive: 27.8%
16 | CCN(CCCNC(=O)Cn1ncc2c3ccccc3n(C)c2c1=O)c1cccc(C)c1 | inactive: 18.2%
17 | Cc1ccccc1C(=O)n1nc(-c2cccnc2)nc1NCc1ccc(F)cc1 | inactive: -33.7%
18 | O=C(Nc1cccc(Cl)c1)c1cc(S(=O)(=O)N2CCC3(CC2)OCCO3)ccc1F | inactive: -24.3%
19 | CCOC(=O)c1ccccc1NC(=O)COc1cc(=O)n(CC)c2ccccc12 | inactive: -4.06%
20 | Cc1cc(OCC(=O)Nc2nc3c(s2)CCCC3)cc(C)c1Cl | inactive: -11.3%
21 | O=C(CCC1N=C2c3ccccc3N=C(SCc3ccc(Cl)cc3)N2C1=O)NC1CCCCC1 (stereo not drawn) | inactive: -18.1%

Row | SMILES | activation
22 | CCOc1ccccc1NC(=O)Cn1c(=O)n(Cc2ccccc2)c(=O)c2c3c(sc21)CN(C(C)=O)CC3 | inactive: -6.94%
23 | COc1ccc(Cl)cc1NC(=O)c1sc2nc3c(cc2c1N)CN(C)CC3 | inactive: 48.6%
24 | Cc1cccc(C)c1NC(=O)Cn1c(=O)cc(C)c2c(C)nn(-c3cccc(Cl)c3C)c21 | inactive: -9.37%
25 | COc1ccc(NC(=O)CC(C)S(=O)(=O)c2ccc3c(c2)NC(=O)CO3)cc1OC (stereo not drawn) | inactive: 0.952%
26 | O=C(CN1CCN(C2CCCCC2)C(=O)C1=O)Nc1ccc(Cl)cc1 | inactive: 11.5%
27 | CCn1cc(C(=O)NCCc2ccccc2)c(=O)c2cc(S(=O)(=O)N3CCc4ccccc4C3)ccc21 | inactive: -12.9%
28 | O=S(=O)(NCCc1csc2nc(-c3ccc(Cl)cc3)nn12)c1ccc2c(c1)OCCO2 | inactive: 10.9%
29 | CCCN(CCC)CCCNC(=O)c1cn(C)c2ccc(S(=O)(=O)N3CCOCC3)cc2c1=O | inactive: -6.68%
30 | CCCn1c2ccccc2c2cnn(CC(=O)NCCCN(Cc3ccccc3)C(C)C)c(=O)c21 | inactive: -13.1%
31 | CC(C)c1ccc(NC(=O)CN2C(=O)COc3ccc(S(=O)(=O)N4CCOCC4)cc32)cc1 | inactive: 1.15%
32 | CCC(C)NC(=O)CN1C(=O)c2cccnc2Oc2ccc(C)cc21 (stereo not drawn) | inactive: -19.8%
33 | COc1ccc(CCNc2nc(SCc3cccc(F)c3)nc3ccccc23)cc1OC | inactive: -3.62%
34 | COC(=O)c1ccc2c(=O)n(CCCCCC(=O)NCc3ccc(OC)cc3)c(=O)[nH]c2c1 | inactive: -25%
35 | COc1ccc(Nc2cc(C(=O)NCCCN(C)C3CCCCC3)c3ccccc3n2)c(OC)c1 | inactive: -17.7%
36 | COc1ccc(-c2cc(C)no2)cc1S(=O)(=O)N1CCOc2ccc(Cl)cc21 | inactive: -18.5%
37 | Cc1nn(-c2ccc(N3CCOCC3)nn2)c(C)c1CCC(=O)Nc1ccc(F)cc1F | inactive: -8.41%
38 | COc1ccc(NC(=O)C2CCCN(S(=O)(=O)c3c(C)[nH]c(=O)[nH]c3=O)C2)cc1Cl (stereo not drawn) | inactive: 5.36%
39 | O=C(CSc1nccn1Cc1ccc(Cl)cc1)Nc1ccc2c(c1)OCO2 | inactive: -13.7%
40 | Cc1ccc(C)c(NC(=O)c2ccc3c(c2)CCN3S(=O)(=O)c2ccccc2)c1 | inactive: -12%
41 | CCC(Sc1nc2ncccc2o1)C(=O)Nc1cccc(C)c1 (stereo not drawn) | inactive: -34%
42 | COc1ccc2oc(=O)c(-c3nc(-c4ccc(C)c(C)c4)cs3)cc2c1 | inactive: 15.7%

Row | SMILES | activation
43 | Cc1cc(C)cc(OCCSc2nc(-c3cccs3)nc3cc(=O)[nH]n23)c1 | inactive: 7.03%
44 | CCc1cc2c(cc3c(=O)n(CC(=O)NCCc4ccccc4)ncn32)s1 | inactive: 5.07%
45 | O=C(Nc1ccc(Cl)c(C(F)(F)F)c1)C(Cc1ccccc1)NS(=O)(=O)c1cccc2nsnc12 (stereo not drawn) | inactive: 4%
46 | CCc1ccc(C2c3c(-c4ccccc4)n[nH]c3C(=O)N2c2ccc(C(=O)O)cc2)cc1 (stereo not drawn) | inactive: 28%
47 | C[C@H]1NCc2cc(-c3ccc4c(=O)c(C(=O)O)cn(C5CC5)c4c3OC(F)F)ccc21 | inactive: -6.4%
48 | C[N+]1(CC2COC(c3ccccc3)(c3ccccc3)O2)CCCCC1 (stereo not drawn) | inactive: -16.3%
49 | O=C(CN1N=C(c2ccccc2)CCC1=O)NCc1ccc(F)cc1Cl | inactive: -14.2%
50 | COc1cccc(-n2cc(C(=O)NCc3ccc(C)cc3)c3ccccc3c2=O)c1 | inactive: -27.8%
51 | COc1ccc(CNC(=O)Cn2ncc3c(=O)oc4ccc(C)cc4c32)c(OC)c1 | inactive: 2.61%
52 | Cc1cc(=O)n2[nH]c(NC(=O)c3cccc(Cl)c3)nc2n1 | inactive: 38.3%
53 | COc1ccccc1CCNC(=O)CCCn1c(=O)c2cccn2c2cccnc21 | inactive: -18.2%
54 | Cc1c(C(=O)NCc2ccc(OC(C)C)cc2)sc2ncnc(N(C)C3CCCCC3)c12 | inactive: -20.2%
55 | CC1=Nc2cc(C(=O)N3CCCCC3)ccc2Sc2ccc(C)cc21 | inactive: 11.5%
56 | CC#C[C@]1(O)CC[C@H]2[C@@H]3CCC4=CC(=O)CCC4=C3[C@@H](c3ccc(N(C)C)cc3)C[C@@]21C | inactive: -13% and inactive: -47%
57 | CCCC(=O)Nc1nnc(SCc2cc(=O)n3cccc(C)c3n2)s1 | inactive: 1.18%
58 | COc1ccc(-c2nc(CN3CCC(C(=O)NCc4ccc(F)cc4)CC3)c(C)o2)cc1OC | inactive: -6.74%
59 | COc1ccc(CCC(=O)NC2CC(=O)N(c3ccccc3)C2)cc1 (stereo not drawn) | inactive: -12%
60 | CCOC(=O)c1c(NC(=O)/C=C/c2ccc(Cl)cc2)sc2c1CCC(C)C2 (stereo not drawn) | active: 79.4%
61 | CCOC(=O)c1c(C)oc2nc(C)nc(N3CCN(c4cccc(C(F)(F)F)c4)CC3)c12 | inactive: -16%
62 | COc1ccc(C2CC(=O)N(CC(=O)Nc3ccc(C(C)=O)cc3)c3ccccc3S2)cc1OC (stereo not drawn) | inactive: -3.29%
63 | CCCN(CCC)CCNC(=O)c1nn(C)c2c1CS(=O)(=O)c1ccccc1-2 | inactive: -11.5%

Row | SMILES | activation
64 | O=C(NCC(c1ccc2c(c1)OCO2)N1CCN(c2ccccc2F)CC1)c1ccccc1F (stereo not drawn) | inactive: -37.4%
65 | Cc1ccccc1C(=O)n1nc(-c2ccco2)nc1NCc1cccs1 | inactive: -18.1%
66 | Cc1ccc2[nH]c(CSc3nnc(NC(=O)COc4ccc(F)cc4)s3)cc(=O)c2c1 | inactive: 11.3%
67 | COc1cc(Cl)c(C)cc1NC(=O)c1nn(C)c2c1CSc1ccccc1-2 | inactive: -8.49%
68 | O=C(NCc1nc(-c2ccccc2)no1)c1ccco1 | inactive: -4.08%
69 | COc1cc(SC)ccc1C(=O)N1CCC(Cc2ccccc2)CC1 | inactive: -10.2%
70 | O=C(CCCCn1c(=O)c2ccccc2n(Cc2cccc(Cl)c2)c1=O)NCc1ccc2c(c1)OCO2 | inactive: -7.73%
71 | COc1ccc(CNC(=O)c2cc(-c3ccc(Cl)cc3)n[nH]2)cc1 | inactive: 0.415%
72 | CCc1ccc(-n2nc(C)c3c(C)cc(=O)n(CC(=O)N(CC)Cc4ccccc4)c32)cc1 | inactive: 4.77%
73 | CCc1ccc(C(=O)c2cn(Cc3ccccc3)c3cc(OC)c(OC)cc3c2=O)cc1 | inactive: -2.96%
74 | O=C(COc1ccc(F)cc1)OCc1cc(=O)n2nc(C3CC3)sc2n1 | active: 96.8%
75 | Cc1ccc(CCNC(=O)C2CCCN(S(=O)(=O)c3ccc4c(c3)oc(=O)n4C)C2)cc1 (stereo not drawn) | inactive: -5.41%
76 | COc1ccccc1NC(=O)CSc1nc(-c2cccc(Cl)c2)nc2c1Cc1c(CO)cnc(C)c1O2 | inactive: 2.1%
77 | CCOc1ccc(CCNC(=O)CCSCc2cccc(Cl)c2)cc1OCC | inactive: -29.6%
78 | Oc1c(C(c2ccc(Cl)cc2Cl)N2CCCC2)sc2nc(-c3ccco3)nn12 (stereo not drawn) | inactive: -5.97%
79 | CCCCOC(=O)c1ccc(Nc2nc3ccc(C)cc3n3cnnc23)cc1 | inactive: -8.12%
80 | CCc1ccccc1NC(=O)COC(=O)c1cn(CC)c2nc(C)ccc2c1=O | inactive: -0.0916%
81 | O=C(Nc1cc(Cl)ccc1O)c1cc2nc(-c3ccc4c(c3)OCO4)cc(C(F)(F)F)n2n1 | inactive: -13.1%
82 | CN(C)c1ccc(NC(=O)C2(c3cccs3)CCOCC2)cc1 | inactive: -29.7%
83 | O=C(CSCc1ccc(F)cc1)N1CCc2c([nH]c3ccccc23)C1c1ccccc1 (stereo not drawn) | inactive: -37.6%

Source: PubChem BioAssay AID1346428 (National Center for Advancing Translational Sciences (NCATS), 2018)
